This note sets out measurements from paper PMC4336329 (PLoS ONE, 2015).

The structures appear in SMILES notation. In all, about 310,000 compounds went through this assay and about 14,000 (4.5%) showed an effect of 50% or more. Effects have a minus sign here. The list shows a part of the results.
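Further: peak tail current of the secondary pulse compared with the same well before compound.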

Sequence of human ether-à-go-go-related gene (hERG) potassium channel (Q12809 whole entry, looked up): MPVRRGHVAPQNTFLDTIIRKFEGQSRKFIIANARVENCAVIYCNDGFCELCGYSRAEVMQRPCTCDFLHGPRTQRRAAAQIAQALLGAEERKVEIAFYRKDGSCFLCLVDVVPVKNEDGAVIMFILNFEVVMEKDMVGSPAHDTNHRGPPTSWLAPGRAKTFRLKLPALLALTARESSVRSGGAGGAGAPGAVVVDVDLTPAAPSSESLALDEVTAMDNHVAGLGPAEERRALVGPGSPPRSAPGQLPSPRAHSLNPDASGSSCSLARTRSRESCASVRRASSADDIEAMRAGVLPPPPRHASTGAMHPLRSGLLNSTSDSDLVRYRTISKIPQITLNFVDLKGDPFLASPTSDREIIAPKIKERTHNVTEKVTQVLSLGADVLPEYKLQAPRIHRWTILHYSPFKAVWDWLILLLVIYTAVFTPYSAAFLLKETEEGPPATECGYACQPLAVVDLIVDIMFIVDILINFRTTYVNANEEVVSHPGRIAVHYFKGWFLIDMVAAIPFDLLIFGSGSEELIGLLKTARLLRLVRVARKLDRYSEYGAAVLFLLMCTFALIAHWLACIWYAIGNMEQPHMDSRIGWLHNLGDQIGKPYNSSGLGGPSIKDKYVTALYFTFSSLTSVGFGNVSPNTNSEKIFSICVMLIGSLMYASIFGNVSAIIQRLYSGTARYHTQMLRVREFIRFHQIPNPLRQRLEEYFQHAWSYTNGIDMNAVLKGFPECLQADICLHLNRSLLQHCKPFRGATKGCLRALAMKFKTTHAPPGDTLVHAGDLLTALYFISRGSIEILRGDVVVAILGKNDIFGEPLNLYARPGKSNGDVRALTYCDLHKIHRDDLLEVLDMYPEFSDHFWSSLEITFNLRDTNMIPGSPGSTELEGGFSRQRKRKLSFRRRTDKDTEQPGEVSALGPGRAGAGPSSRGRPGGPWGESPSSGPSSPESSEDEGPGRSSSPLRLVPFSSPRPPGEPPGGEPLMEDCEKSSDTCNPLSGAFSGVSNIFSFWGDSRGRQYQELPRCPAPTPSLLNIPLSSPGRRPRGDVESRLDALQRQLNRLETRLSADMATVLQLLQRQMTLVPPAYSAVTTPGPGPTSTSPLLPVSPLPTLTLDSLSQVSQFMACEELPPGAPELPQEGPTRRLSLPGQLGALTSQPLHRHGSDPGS

The test addresses human ether-à-go-go-related gene (hERG) potassium channel (human, UniProt Q12809). As to the kind of experiment: primary screen, population patch clamp on CHO cells stably expressing hERG.
Take `CCN=C1S/C(=C\c2ccc(OC)c(OCC)c2)C(=O)N1CC`: the “hERG current change (%, negative = inhibition) at 10uM” value came to 7.54%.
The figure for `Cc1c2n(c3ccccc13)CCC2=O` is 12.8%.
As for `OCCC1CN(Cc2cc3c(cc2Cl)OCO3)CCN1C1CCCC1` (centres unmarked), the “hERG current change (%, negative = inhibition) at 10uM” value is on record as -50.8%.
For the compound `O=C(c1ccco1)N1CCCC(c2ccccc2)C1` (centres unmarked), the “hERG current change (%, negative = inhibition) at 10uM” value stood at 0.966%.
Under `CCc1cccc(C)c1NC(=O)CCCN1C(=O)NC(C)(C)C1=O` stands -0.441%; under `Cc1ccc(-c2cn3nc(C)c(C)nc3n2)cc1`, -6.47%.
Under `Cc1cc(-c2cc(C(=O)NCc3ccccc3)on2)nc(NC2CCCC2)n1` stands 13%; under `COc1ccc(CCNS(=O)(=O)c2cccc([N+](=O)[O-])c2)cc1OC`, 4%.
In the case of `CC(/C=N/NC(=O)CSc1nc(C)cc(C)n1)=C\c1ccccc1`, the “hERG current change (%, negative = inhibition) at 10uM” value is -1.5%.
The figure for `Cc1ccccc1NC(=O)CCNS(=O)(=O)c1ccc2[nH]c(=O)oc2c1` is 4.53%.
On to `Nc1nonc1-c1nc2ccccc2n1CC(=O)Nc1ccccc1`, for which the “hERG current change (%, negative = inhibition) at 10uM” value worked out at 5.65%.
Under `COc1ccc(OC)c(C(C)NC(=S)NC2CCCCC2)c1` (centres unmarked) stands -6.58%.
Under `COc1cc(C(=S)N2CCOCC2)ccc1OC(=O)c1ccc([N+](=O)[O-])cc1[N+](=O)[O-]` stands 17.1%; under `CCOc1ccc(NC(=O)/C=C/c2ccc(OC)cc2)c([N+](=O)[O-])c1`, 12.2%.
Consider `COc1ccc(CCNS(=O)(=O)c2ccc3c(c2)NC(=O)CS3)cc1OC`, for which the “hERG current change (%, negative = inhibition) at 10uM” value turned out to be 5.81%.
Under `Cc1ccc2c(c1)N(C(C)C(=O)NCc1ccccn1)C(=O)CO2` (centres unmarked) stands 5.06%; under `NC(=O)CN1CCOCCOCCN(CC(N)=O)CCOCC1`, -3.16%; under `Cc1nc2ccc(NC(=O)c3ccccc3)cc2s1`, 2.56%.
The figure for `COC(=O)c1ccc(C2Nc3ccccc3NC3=C2C(=O)CC(C)(C)C3)cc1` (centres unmarked) is 8.58%.
The figure for `CCOc1cc(/C=N/n2cnnc2)cc(Br)c1O` is -2.33%; for `O=C(CSc1ccc(F)cc1)Nc1ccc2c(c1)C(=O)NC2=O` it is -22.1%.
Take `COc1ccc(CNC(=O)c2cncc(Br)c2)cc1`: the “hERG current change (%, negative = inhibition) at 10uM” value was 11.5%.
The figure for `CCOc1ccc(C(=O)Nc2c3c(nn2-c2cccc(C)c2C)CS(=O)C3)cc1` (centres unmarked) is -11%; for `O=C(NN1C(=O)C2CC=C(Cl)CC2C1=O)c1ccncc1` (centres unmarked) it is 21.1%; for `O=C(CNC(=O)c1cccc(F)c1)OCC(=O)N1CCCc2ccccc21` it is -0.321%.
The figure for `O=C(NN1C(=O)c2ccccc2NC1c1ccco1)c1ccc(Br)cc1` (centres unmarked) is -76.6%.
The figure for `COc1cc(/C=N/NS(=O)(=O)c2ccc3ccccc3c2)ccc1OCc1ccc(C(=O)O)cc1` is 24.8%.
With `CCOC(=O)C(C)/C(C)=N/NC(=O)c1cc2ccccc2cc1O` (centres unmarked), the “hERG current change (%, negative = inhibition) at 10uM” value was determined as 8.33%.
The figure for `CC(C)(C)S(=O)(=O)c1cnc2c(-c3ccc(F)cc3)cnn2c1N` is -2.82%.
The figure for `COc1ccc(CCNC(=O)c2sc3ccccc3c2Cl)cc1OC` is -5.82%.
On to `Cc1ccc(N(C(=O)c2snc(C(N)=O)c2N)C(C(=O)NCC2CCCO2)c2c[nH]c3ccccc23)cc1` (centres unmarked), for which the “hERG current change (%, negative = inhibition) at 10uM” value is listed as -6.36%.
The figure for `Cc1ccc([C@@H]2[C@@H]3C(=O)N(C)C(=O)[C@@H]3[C@]3(Cc4ccccc4)C(=O)N(CCO)CC(=O)N23)o1` is 0.221%; for `CN(CCOc1ccccc1)C(=O)C1CCC(=O)N(CCc2ccc(Cl)cc2)C1` (centres unmarked) it is -84.9%; for `CC(C)OP(=O)(c1ccc(N(C)C)cc1)C(O)c1cccnc1` (centres unmarked) it is 13.1%.
Under `CCOC(=O)Cc1c(C)[nH]n(-c2ccccc2)c1=O` stands 11.6%; under `COc1ccc(CNC(=O)CN2C(=O)C3CCCN3c3ncc(Cl)cc32)cc1` (centres unmarked), -29%.
The figure for `COc1ccc(C=O)cc1COc1ccc(Cl)cc1[N+](=O)[O-]` is -0.414%; for `COc1ccc(/C(=N/OC(C)=O)c2nccc3cc(OC)c(OC)cc23)cc1OC` it is 18.6%; for `COC(=O)c1cc(C#N)c(=O)[nH]c1C` it is 20.3%.
For the compound `Cc1nn(C)c(N)c1C(O)(c1nccn1C)C(F)(F)F` (centres unmarked), the “hERG current change (%, negative = inhibition) at 10uM” value is listed as 6.36%.
Under `CCC[C@@H]1C[C@@]1(CCC)[C@@H](NC(=O)c1ccccc1)c1ccc(C(=O)OC)cc1` stands 26.1%.
For the compound `O=C(CSc1nnnn1C1CCCCC1)N1c2ccccc2Sc2ccccc21`, the “hERG current change (%, negative = inhibition) at 10uM” value is reported as -4.31%.
`CC(=O)Nc1sc(NC(=O)c2ccc([N+](=O)[O-])cc2)nc1-c1cccs1`: the “hERG current change (%, negative = inhibition) at 10uM” value is -0.605%.
The figure for `COc1ccc(CCN(C)CCC(=O)Nc2cccc(C)c2)cc1OC.Cl` is -65.8%.
